Test results as given in the supplement of paper PMC9433436.
± gives the standard deviation of the averaged measurements. The full ranking holds about 4,100 sequences; the median of “relative kcat/Km (krel) vs genomic leader AAAGAU” is about 1.7, and the highest 2% start at about 6.5. The entries are a selection whose mix differs from that of the whole data set.

Target: T1, E. coli RNase P holoenzyme (M1 P RNA + rnpA protein) (UniProt P0A7Y8)
T1 sequence: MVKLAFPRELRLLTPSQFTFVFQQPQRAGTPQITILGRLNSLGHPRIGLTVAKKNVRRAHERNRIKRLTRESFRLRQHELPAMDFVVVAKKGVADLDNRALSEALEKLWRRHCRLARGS
Experiment: relative kcat/Km (krel) vs genomic leader AAAGAU (relative (reference leader = 1)); higher = faster RNase P cleavage
Method: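 HTS-Kin: a pool of ptRNA-Met (21C construct) with all 4096 combinations of 5' leader nucleotides N(-6) to N(-1) was processed in vitro by E. coli RNase P (P RNA + rnpA/C5 protein) under multiple-turnover conditions at 37 C, pH 8, 17.5 mM MgCl2. Residual substrate was Illumina-sequenced at several fractions reacted, and relative kcat/Km (krel) was computed by internal competition kinetics, calibrated to the genomic leader (AAAGAU = 1). The listed hexamer is the varied N(-6)..N(-1) leader (DNA letters), and it sits between a fixed 5' stem-loop flank (GCAUGCACGAAAGUGCGUGCUAUGAA) and the mature tRNA-Met starting GGCUACGUAGCUCAGUUGG. Two technical replicates are averaged.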

[1] = fraction of substrate reacted: ~9-10% (9.79% repeat 1, 9.1% repeat 2)
[2] = fraction of substrate reacted: ~13-16% (15.68% repeat 1, 13.17% repeat 2)
[3] = fraction of substrate reacted: ~26-29% (28.66% repeat 1, 26.4% repeat 2)

Sequence	relative kcat/Km [1]	relative kcat/Km [2]	relative kcat/Km [3]
AGTAAA	3.49 ± 0.93	3.7 ± 1.4	5.74 ± 2.5
ACAAGA	1.37 ± 0.28	1.26 ± 0.58	2.25 ± 0.74
AGCCAA	1.73 ± 1.4	2.54 ± 0.036	3.67 ± 0.53
TGGACA	0.751 ± 0.13	0.729 ± 0.41	0.947 ± 0.6
TAGTCT	2.45 ± 1.3	3.04 ± 0.54	4.35 ± 1.9
GGGCCC	0.895 ± 0.33	0.887 ± 0.77	0.973 ± 0.6
CCTTCT	2.65 ± 1.4	1.65 ± 0.92	2.41 ± 0.38
CACCGG			1.08 ± 0.15
CGGGGG			0.675 ± 0.42
TACGCC	3.64 ± 0.043	5.35 ± 1.7	7.66 ± 3.3
CGCTCT	2.3 ± 0.091	2.53 ± 1.2	3.68 ± 1.4
AGGTGC		0.359 ± 0.23	0.616 ± 0.13
CTTGTA	1.4 ± 0.92	1.19 ± 0.34	1.42 ± 0.46
AACACA	3.35 ± 2.1	2.59 ± 0.34	3.94 ± 1.5
GCTTAG	1.03 ± 1	0.936 ± 0.032	2.32 ± 0.52
CGGGAG			0.28 ± 0.16
GAGTGA			1.86 ± 0.3
GCTAAG	0.961 ± 0.2	0.281 ± 0.25	0.836 ± 0.094
GGCTTC	0.513 ± 0.13	1.31 ± 0.14	1.7 ± 0.44
GAAGTA	0.209 ± 0.11	0.813 ± 0.19	1.18 ± 0.12
GTACGA		2.23 ± 1	4.06 ± 1.7
CCTCCT	2.08 ± 1.7	1.23 ± 0.17	1.29 ± 0.79
ACTGAC	1.48 ± 0.23	1.44 ± 0.18	2.47 ± 0.61
GAGCTT	1.95 ± 1.7	1.05 ± 0.34	1.75 ± 0.068
GAATCT	1.52 ± 0.53	2.22 ± 0.41	3.63 ± 2
GGATGG			0.8644 ± 0.0076

Sequence	relative kcat/Km [1]	relative kcat/Km [2]	relative kcat/Km [3]
CAATCT	2.12 ± 0.91	2.04 ± 0.33	3.14 ± 0.86
TTACAG		1.44 ± 0.6	2.78 ± 0.57
GTTGAT	1.71 ± 0.32	1.46 ± 0.57	1.62 ± 0.72
TTTCCG		0.326 ± 0.23	1.29 ± 0.027
CTACTG			1.23 ± 0.06
GAACGC	1.81 ± 0.21	1.7 ± 1.2	2.77 ± 0.87
CTGTAA	2.15 ± 0.24	2.476 ± 0.012	3.91 ± 0.57
TTGGAC	1.33 ± 0.99	1.66 ± 1.2	1.5 ± 0.67
ATATCT	2.7 ± 1.5	3.27 ± 0.033	3.92 ± 1.3
ACTCAA		2.05 ± 0.33	2.48 ± 0.61
CCCCTC	1.82 ± 0.31	2.16 ± 0.33	3.17 ± 1.1
CAAGCA		1.12 ± 0.73	1.47 ± 0.89
CGCTGA	1.89 ± 0.05	2.02 ± 1	3.55 ± 0.89
CAAATT	1.34 ± 0.051	1.56 ± 0.49	1.98 ± 0.52
AGGACG			0.724 ± 0.32
GCATGT			1.39 ± 1.1
CTGCGG		0.228 ± 0.042	0.674 ± 0.39
CAGAAC	3.1 ± 1.9	2.99 ± 0.042	4.01 ± 0.99
CAGTAC	3.68 ± 1.6	4.92 ± 0.95	6.37 ± 2.2
AAGACT	1.08 ± 0.93		1.63 ± 0.12
GGAATA	1.82 ± 0.55	1.8 ± 0.031	1.9 ± 0.54
GCGCCA	0.856 ± 0.1	0.801 ± 0.097	0.923 ± 0.28
CCTTTT	2.12 ± 0.32	2.5 ± 0.59	3.23 ± 0.89
TGAAGA	2.35 ± 0.51	2.79 ± 0.87	3.98 ± 1.3
CCTCGT	0.109 ± 0.037		
TGAGTA	0.957 ± 0.65	0.718 ± 0.19	0.835 ± 0.5

Sequence	relative kcat/Km [1]	relative kcat/Km [2]	relative kcat/Km [3]
GGACTT	0.557 ± 0.36	1.13 ± 0.16	1.72 ± 0.87
TCAACA	1.41 ± 1.4	0.943 ± 0.28	1.25 ± 0.15
TCGTTG		0.664 ± 0.27	1.32 ± 0.76
TCGCGC	1.38 ± 0.87	1.39 ± 0.44	2.19 ± 0.43
AACCGC	3.24 ± 0.86	3.02 ± 0.23	4.02 ± 0.71
CACGTC	2.22 ± 0.52	2.85 ± 0.29	3.87 ± 1.4
CTAGGC	0.689 ± 0.58		0.602 ± 0.28
CTTTGA	3.37 ± 1.3	4.04 ± 0.95	6.03 ± 1.9
TGGCCT	0.654 ± 0.19	0.698 ± 0.36	1 ± 0.72
TCTTCT	2.65 ± 0.82	3.25 ± 0.61	4.06 ± 0.99
CCACTT	1.71 ± 0.26	0.873 ± 0.61	1.91 ± 0.31
CGCCTA	2.59 ± 1.6	2.6 ± 0.31	3.01 ± 0.38
CCGCTT	0.722 ± 0.14	0.804 ± 0.8	1.52 ± 0.08
CTACCT	1.63 ± 0.036	1.09 ± 0.68	1.95 ± 0.57
CGACTG			1.06 ± 0.51
AGGGAC	0.909 ± 0.096	0.941 ± 0.3	1.13 ± 0.59
TTGATT	1.77 ± 0.11	2.33 ± 0.52	2.72 ± 1
ATCCGA	4.57 ± 1.7	4.95 ± 0.73	7.19 ± 2.7
TCGCCC	2.79 ± 1.3	3.26 ± 0.68	4.33 ± 1.8
TTGACG		0.516 ± 0.018	1.3 ± 0.49
TGGGCC	0.405 ± 0.12		0.302 ± 0.058
CTCAAT	4.23 ± 0.85	5.46 ± 1.7	
GCTTTC	2.29 ± 2.1	1.88 ± 0.58	2.09 ± 0.45
AATAAT	2.43 ± 1.9	2.35 ± 0.53	3.46 ± 0.93
GGTGTC	1.05 ± 0.68	0.738 ± 0.36	0.923 ± 0.48
CACATG	1.79 ± 1.8	1.05 ± 0.064	2.45 ± 0.4

Sequence	relative kcat/Km [1]	relative kcat/Km [2]	relative kcat/Km [3]
ACTAGA	2.41 ± 0.81	2.21 ± 0.18	3.27 ± 0.63
TCGAAA	2.14 ± 0.82	2.54 ± 0.73	3.76 ± 0.63
CGATTA	1.86 ± 0.43	2.14 ± 0.18	3.55 ± 1.1
GAATAC	3.39 ± 1.4	3.87 ± 0.54	4.94 ± 1.5
CACTTA	2.83 ± 0.8	3.66 ± 0.43	5 ± 1.9
TGTCGC	1.87 ± 0.089	2.92 ± 1.1	5.09 ± 2.2
GCCGAC	2.64 ± 1.3	3.49 ± 0.69	5.36 ± 2.2
GACCCC	2.47 ± 1.1	1.42 ± 0.41	2.98 ± 1.3
TAAAGA	1.01 ± 0.34	1.61 ± 0.79	3.01 ± 1.7
TTGTTC	1.96 ± 0.092	2.08 ± 0.17	3.27 ± 1.5
ATGCTA	1.02 ± 0.14	0.937 ± 0.11	1.11 ± 0.45
ATGGCT	0.242 ± 0.14		
CTGAGG	0.926 ± 0.1		0.642 ± 0.14
TAATCG		0.624 ± 0.13	1.73 ± 0.43
GCGCTT	1.91 ± 0.64	1.38 ± 0.55	1.55 ± 0.38
TCTCCA	1.69 ± 0.31	1.48 ± 0.041	2.05 ± 0.9
GTAAAG	1.55 ± 1.1	1.15 ± 0.022	2.12 ± 0.82
GGGTTA	0.464 ± 0.21	1.07 ± 0.59	1.14 ± 0.58
CTTGGG	0.577 ± 0.43	0.357 ± 0.26	0.81 ± 0.43
AGACTT	1.5 ± 0.67	2.25 ± 0.44	2.66 ± 0.6
TTTTGT			2.01 ± 1.6
GGGGCC	0.798 ± 0.048	0.576 ± 0.47	0.579 ± 0.14
CGCACA	2.02 ± 0.55	2.07 ± 0.6	3.32 ± 1.5
